Data from publication PMC12136788.
The other results are listed elsewhere or left out.

T1: UNK ZnF1-3 (human, UniProt Q9C0B0 31-174)
T1 sequence: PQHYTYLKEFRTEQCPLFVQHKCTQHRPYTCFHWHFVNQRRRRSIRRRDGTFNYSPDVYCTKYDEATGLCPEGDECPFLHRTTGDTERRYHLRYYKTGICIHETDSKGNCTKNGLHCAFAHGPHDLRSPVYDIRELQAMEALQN

B1: chr1:29344887:29344888:+_ENSG00000159023_ENST00000356093|perfect_dup|FALSE|FALSE (ssRNA)
RNA: GGGAGUUCUACAGUCCGACGAUCUUCCAUGACCUUCUCUUCAAGUUCCUUGGUCUGAUUCGGGGCCAGUUUAAAAUCACUAACAUAAUCCACGCCAUGGAGUUCUGGGUCGUAGUCUCCCAGUUCAGACUGGAUGGUGUAAGACAACAGAGGAUUGAGCAUCA
B2: chr6:40197388:40197389:+_ENSMUSG00000057716_ENSMUST00000061740|mus_mus|mus_mus_mus_hu_False|78_108 (ssRNA)
RNA: GGGAGUUCUACAGUCCGACGAUCGAGUUGUCAGUUUGGAUUUAUUCCACCUCUGUUUGCUAGCCUCCCACUAAGACUGUUAUUUUGGGAUUCAUGGCCUUGAAUAUCAAGAGGGAAAGGAAGAGGAUGGAAAGAGUCAAGAGUCAACAGAGGAUUGAGCAUCA
B3: 40027678_40027798_1884_CDS_ENSG00000065883_ENST00000340829|human|control|control (ssRNA)
RNA: GGGAGUUCUACAGUCCGACGAUCGGUGACUAAAGCUACAUGUUGCUCCUUCUCCUUGGCUCCUAUGCUUGGUGUAAGUGGUUUGGUUUUCUCUUUAAGAGAUACUGAUUCCUCCUUUGUAGCAGCAGAUUUACUCUCCUUUCCCAACAGAGGAUUGAGCAUCA
B4: 124788451_124788571_2579_3pUTR_ENSMUSG00000028863_ENSMUST00000154689|mouse|control|control (ssRNA)
RNA: GGGAGUUCUACAGUCCGACGAUCGGUUGACAUGGCACUGAGGGUCGACCCCCUGCAUGCUAGACAAUUACUCCGUCACUGAGCUAUGCCACUCGUCUUCUUGAUGCCCUUAUUCGAUGCUACCCAGAAAUAGGGAAAGCAAGUCAACAGAGGAUUGAGCAUCA
B5: chr14:21343309:21343310:-_ENSMUSG00000021816_ENSMUST00000161445|mus_mus|FALSE|FALSE (ssRNA)
RNA: GGGAGUUCUACAGUCCGACGAUCAGGAUCAGACCAUAGCAAGUCACACAUUGGUCCAAAUGCAGGUGGCUCUUUAAAUCUAUCUAAUCUCCUAAUAUCAUCCAGUGUGUGUAUUUCUGGUGAAAGUCCACCAUGAACACAAAGCAACAGAGGAUUGAGCAUCA
B6: chr7:54823571:54823572:-_ENSG00000132432_ENST00000352861|hu_mus|hu_hu_hu_mus_False|1_48 (ssRNA)
RNA: GGGAGUUCUACAGUCCGACGAUCUCCCAUGAUAGCAAAUCCUAUAGCUGUAGCCAUGGCAAUCUUCUGGAAUUCUUUUCUGUCGGGUUUAGUGCAUCUUUUAACCAGCCGAAUUGAGUCCUUUACAAACUGCCGGCUUGGCUCCAACAGAGGAUUGAGCAUCA
B7: chr7:102952668:102952669:+_ENSG00000105819_ENST00000453466|hu_hu|motif|central (ssRNA)
RNA: GGGAGUUCUACAGUCCGACGAUCCUGUUUAAAAUCUGGUAGUUGCUUAAUGGGACCAACAGCAGCAAUAGCUGGACUCCGGUUAUAAAUGUAUUUGGUACAUACUUCUCGAAUUGUCUCAGCAUUCACAGCAUCAAUUCUUGCCAACAGAGGAUUGAGCAUCA
B8: 14029214_14029334_1494_CDS_ENSG00000175595_ENST00000311895|human|control|control (ssRNA)
RNA: GGGAGUUCUACAGUCCGACGAUCACGAUAUCCUUCCUCGACAUCUCCUUCCUCUUCCAGUUCUUCAGGUUUUCCUACCAUUUGAGUUAAGGUCAACUUCCGUUUUUUCUUUUUGAGGGUUCUUUCUUUGGUAGAAGCCCGUUCCAACAGAGGAUUGAGCAUCA
B9: chr16:94651144:94651145:+_ENSMUSG00000040785_ENSMUST00000117648|mus_hu|mus_mus_mus_hu_True|18_18 (ssRNA)
RNA: GGGAGUUCUACAGUCCGACGAUCAUUUUCUUGAAUCAAGUGGCGAAUAACAUAGUCCACUGCUUCAUUUAGAAAAUUUCUGCUAGAAAAACAGGUUGUAUAGUCUUCUGUGCUCAAAACCUUCCAAGAAAGCAAUUCUUUGAGCAACAGAGGAUUGAGCAUCA
B10: chr1:59924863:59924864:+_ENSMUSG00000067336_ENSMUST00000087435|mus_mus|FALSE|FALSE (ssRNA)
RNA: GGGAGUUCUACAGUCCGACGAUCGUUGCCAAAUUUUAGCCGGGGUUCUUUUGUUGAAUUUUUGGUGUUCAAAGGCAAACUAGUAGGUCUCUUAGGAAGGUUCUGUUGCUUAGGGAGAGGAUAGAUCUGAGCAGGUGGAACAUCCAACAGAGGAUUGAGCAUCA
B11: chr4:115894766:115894767:+_ENSMUSG00000028698_ENSMUST00000030464|mus_hu|mus_mus_mus_hu_True|48_88 (ssRNA)
RNA: GGGAGUUCUACAGUCCGACGAUCUUCCACACGGAAAUGUACUUCGGGUUUCCAACGGGCCAGUACCAGUCCGGCCAAACUACCCGAUGAGGACAAGCCCCCUCUCUCCUACAGAACACAACAAAAUGCCCCCGAACUUUCAAGCAACAGAGGAUUGAGCAUCA
B12: chr19:59067291:59067292:-_ENSG00000130725_ENST00000253023|hu_hu|motif|central (ssRNA)
RNA: GGGAGUUCUACAGUCCGACGAUCUGGGUCGGGGGAGGCAGCGCCGACCUUAAUCACAUGGUGUUAAAAAAAAAAAAAUAACGGGGGGCACGUGGCAGGAAGGGGAGGCAAGGCCAAGGCAGGGGAUUCCCCCACCGGCCGCCCCAACAGAGGAUUGAGCAUCA
B13: chr6:40426449:40426450:+_ENSMUSG00000029911_ENSMUST00000121360|perfect_dup|motif|central (ssRNA)
RNA: GGGAGUUCUACAGUCCGACGAUCAACGUCACCCAUUUGGUAUACUUCACUAUCCCCUGAUCGCCACAUCUCAUUUGUUGCGGGAGAAAAUAUUGUGACUGGGUUUUUUCCUUCCACCUGUCUCAUGACAGGGUCCUGACCUACCAACAGAGGAUUGAGCAUCA
B14: chr2:153237265:153237266:-_ENSMUSG00000061411_ENSMUST00000109784|mus_mus|mus_mus_mus_hu_False|58_98 (ssRNA)
RNA: GGGAGUUCUACAGUCCGACGAUCAAAAAAAAAAAAAGAAAAGUGUCCUUGUGCCCAAAGUCUCAGGUGCUUGGAGUGCAGCUAGAAACAGCUCUUUUGGAUCCCACCUCUUUCAAAAACAAAAUGUACCAACUGGUGAGGCAGCAACAGAGGAUUGAGCAUCA

Biological target: T1, UNK ZnF1-3
Experiment: nsRBNS (natural sequence RNA bind-n-seq); RBNS binding buffer (assumed for nsRBNS): 25 mM Tris pH 7.5, 150 mM KCl, 3 mM MgCl2, 0.01% Triton X-100, 500 ug/ml BSA, 20 U/ml SUPERase-In, 4 C; UNK is unkempt and MSI1 is Musashi-1; names of the RNAs are library labels; protein concentration not given here; high values mean tight binding

Compared with B1, B2 is higher in binding signal: 0.621 enrichment R for the first, 1.34 enrichment R for the second.

Going from B3 to B4, the binding signal rises from 0.525 enrichment R to 0.814 enrichment R.

First: B5
Second: B6
The binding signal of the first is higher: 0.811 enrichment R for the first, 0.673 enrichment R for the second.

Compared with B7, B8 is lower in binding signal: 1.15 enrichment R for the first, 0.307 enrichment R for the second.

Compared with B9, B10 is higher in binding signal: 0.512 enrichment R for the first, 1.55 enrichment R for the second.

Going from B11 to B12, the binding signal rises from 1.17 enrichment R to 3.02 enrichment R.

Going from B13 to B14, the binding signal rises from 0.941 enrichment R to 3.23 enrichment R.
